This is one part of the list.
How the values were obtained:
Experiment in all cases: glycan array binding signal (z-score within array); higher = stronger binding
Conditions in all cases: glycan notation: IUPAC condensed, linker removed
[1] = molecular target: Gal(b1-3)[GlcNAc(b1-6)]GalNAc
In short: (§1)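 Negative Z-scores can be read as non-binding. The Z-score is calculated within each array and then averaged across arrays of one protein sequence at different concentrations or buffers and across linkers. Arrays, 3228 in all, were curated from the Consortium for Functional Glycomics database and kept only where the protein sequence was available.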

[2] = molecular target: Gal(b1-3)[Neu5Ac(a2-6)]GalNAc
In short: as §1

[3] = molecular target: Gal(b1-3)[Neu5Ac(a2-6)]GlcNAc(b1-4)Gal(b1-4)Glc
In short: as §1

[4] = molecular target: Gal(b1-3)[Neu5Ac(b2-6)]GalNAc
In short: as §1

[5] = molecular target: Gal(b1-4)Gal
In short: as §1

[6] = molecular target: Gal(b1-4)GalNAc(a1-3)[Fuc(a1-2)]Gal(b1-4)GlcNAc
In short: as §1

[7] = molecular target: Gal(b1-4)GalNAc(b1-3)[Fuc(a1-2)]Gal(b1-4)GlcNAc
In short: as §1

[8] = molecular target: Gal(b1-4)Glc
In short: as §1

[9] = molecular target: Gal(b1-4)Glc6S
In short: as §1

[10] = molecular target: Gal(b1-4)GlcNAc
In short: as §1

[11] = molecular target: Gal(b1-4)GlcNAc(a1-6)Gal(b1-4)GlcNAc
In short: as §1

[12] = molecular target: Gal(b1-4)GlcNAc(b1-2)Man
In short: as §1

[13] = molecular target: Gal(b1-4)GlcNAc(b1-2)Man(a1-3)Man(b1-4)GlcNAc(b1-4)GlcNAc
In short: as §1

[14] = molecular target: Gal(b1-4)GlcNAc(b1-2)Man(a1-3)[Gal(b1-4)GlcNAc(b1-2)Man(a1-6)]Man(b1-4)GlcNAc(b1-4)GlcNAc
In short: as §1

[15] = molecular target: Gal(b1-4)GlcNAc(b1-2)Man(a1-3)[Gal(b1-4)GlcNAc(b1-2)Man(a1-6)]Man(b1-4)GlcNAc(b1-4)[Fuc(a1-6)]GlcNAc
In short: as §1

[16] = molecular target: Gal(b1-4)GlcNAc(b1-2)Man(a1-3)[Gal(b1-4)GlcNAc(b1-2)Man(a1-6)][Gal(b1-4)GlcNAc(b1-4)]Man(b1-4)GlcNAc(b1-4)[Fuc(a1-6)]GlcNAc
In short: as §1

[17] = molecular target: Gal(b1-4)GlcNAc(b1-2)Man(a1-3)[Gal(b1-4)GlcNAc(b1-2)Man(a1-6)][GlcNAc(b1-4)]Man(b1-4)GlcNAc(b1-4)[Fuc(a1-6)]GlcNAc
In short: as §1

[18] = molecular target: Gal(b1-4)GlcNAc(b1-2)Man(a1-3)[GlcNAc(b1-2)Man(a1-6)]Man(b1-4)GlcNAc(b1-4)GlcNAc
In short: as §1

[19] = molecular target: Gal(b1-4)GlcNAc(b1-2)Man(a1-3)[GlcNAc(b1-4)][Gal(b1-4)GlcNAc(b1-2)Man(a1-6)]Man(b1-4)GlcNAc(b1-4)GlcNAc
In short: as §1

[20] = molecular target: Gal(b1-4)GlcNAc(b1-2)Man(a1-3)[Man(a1-6)]Man(b1-4)GlcNAc(b1-4)GlcNAc
In short: as §1

[21] = molecular target: Gal(b1-4)GlcNAc(b1-2)Man(a1-6)Man(b1-4)GlcNAc(b1-4)GlcNAc
In short: as §1

[22] = molecular target: Gal(b1-4)GlcNAc(b1-2)Man(a1-6)[GlcNAc(b1-2)Man(a1-3)]Man(b1-4)GlcNAc(b1-4)GlcNAc
In short: as §1

[23] = molecular target: Gal(b1-4)GlcNAc(b1-2)Man(a1-6)[Man(a1-3)]Man(b1-4)GlcNAc(b1-4)GlcNAc
In short: as §1

[24] = molecular target: Gal(b1-4)GlcNAc(b1-2)[Gal(b1-4)GlcNAc(b1-4)]Man(a1-3)[Gal(b1-4)GlcNAc(b1-2)Man(a1-6)]Man(b1-4)GlcNAc(b1-4)GlcNAc
In short: as §1

[25] = molecular target: Gal(b1-4)GlcNAc(b1-2)[Gal(b1-4)GlcNAc(b1-4)]Man(a1-3)[Gal(b1-4)GlcNAc(b1-2)[Gal(b1-4)GlcNAc(b1-6)]Man(a1-6)]Man(b1-4)GlcNAc(b1-4)GlcNAc
In short: as §1

[26] = molecular target: Gal(b1-4)GlcNAc(b1-2)[Gal(b1-4)GlcNAc(b1-4)]Man(a1-3)[GlcNAc(b1-4)][Gal(b1-4)GlcNAc(b1-2)Man(a1-6)]Man(b1-4)GlcNAc(b1-4)GlcNAc
In short: as §1

[27] = molecular target: Gal(b1-4)GlcNAc(b1-2)[Gal(b1-4)GlcNAc(b1-4)]Man(a1-3)[GlcNAc(b1-4)][Gal(b1-4)GlcNAc(b1-2)[Gal(b1-4)GlcNAc(b1-6)]Man(a1-6)]Man(b1-4)GlcNAc(b1-4)GlcNAc
In short: as §1

[28] = molecular target: Gal(b1-4)GlcNAc(b1-2)[Gal(b1-4)GlcNAc(b1-6)]Man(a1-6)[Gal(b1-4)GlcNAc(b1-2)Man(a1-3)]Man(b1-4)GlcNAc(b1-4)GlcNAc
In short: as §1

[29] = molecular target: Gal(b1-4)GlcNAc(b1-2)[Gal(b1-4)GlcNAc(b1-6)]Man(a1-6)[Gal(b1-4)GlcNAc(b1-2)Man(a1-3)]Man(b1-4)GlcNAc(b1-4)[Fuc(a1-6)]GlcNAc
In short: as §1

[30] = molecular target: Gal(b1-4)GlcNAc(b1-2)[Gal(b1-4)GlcNAc(b1-6)]Man(a1-6)[GlcNAc(b1-4)][Gal(b1-4)GlcNAc(b1-2)Man(a1-3)]Man(b1-4)GlcNAc(b1-4)GlcNAc
In short: as §1

[31] = molecular target: Gal(b1-4)GlcNAc(b1-2)[Gal(b1-4)GlcNAc(b1-6)]Man(a1-6)[GlcNAc(b1-4)][Gal(b1-4)GlcNAc(b1-2)[Gal(b1-4)GlcNAc(b1-4)]Man(a1-3)]Man(b1-4)GlcNAc(b1-4)[Fuc(a1-6)]GlcNAc
In short: as §1

[32] = molecular target: Gal(b1-4)GlcNAc(b1-3)Gal(b1-3)GalNAc
In short: as §1

[33] = molecular target: Gal(b1-4)GlcNAc(b1-3)Gal(b1-3)GlcNAc
In short: as §1

[34] = molecular target: Gal(b1-4)GlcNAc(b1-3)Gal(b1-4)Glc
In short: as §1

[35] = molecular target: Gal(b1-4)GlcNAc(b1-3)Gal(b1-4)GlcNAc
In short: as §1

[36] = molecular target: Gal(b1-4)GlcNAc(b1-3)Gal(b1-4)GlcNAc(b1-2)Man(a1-3)[Gal(b1-4)GlcNAc(b1-3)Gal(b1-4)GlcNAc(b1-2)Man(a1-6)]Man(b1-4)GlcNAc(b1-4)GlcNAc
In short: as §1

[37] = molecular target: Gal(b1-4)GlcNAc(b1-3)Gal(b1-4)GlcNAc(b1-2)Man(a1-3)[Gal(b1-4)GlcNAc(b1-3)Gal(b1-4)GlcNAc(b1-2)Man(a1-6)]Man(b1-4)GlcNAc(b1-4)[Fuc(a1-6)]GlcNAc
In short: as §1

[38] = molecular target: Gal(b1-4)GlcNAc(b1-3)Gal(b1-4)GlcNAc(b1-2)[Gal(b1-4)GlcNAc(b1-3)Gal(b1-4)GlcNAc(b1-6)]Man(a1-6)[Gal(b1-4)GlcNAc(b1-3)Gal(b1-4)GlcNAc(b1-2)Man(a1-3)]Man(b1-4)GlcNAc(b1-4)GlcNAc
In short: as §1

B1: CaSRK1 (Capsicum annuum) (protein)
chain: MALCKIFPFAFILLSCSCYLISGQRFDYPTANLSTTWINSVSAPHSIDYTDGSRIRAILLRGTFGPRYACGFYCNGNCESYLFAIFIVQTNSASQITSPAIGFPQVVWSANRNNPVKINSTLQLTAEGDLVLRDADGTLAWSTNTAGKSVAGLSLTDEGNLALFDSKNATVWQSFDHPTDALVPGQKLVPGMKLTASVSRTNWTAGGLFALSAIDNGLVAFVESNPPQKYFEASVGGSNTSGGSNYVKYLNGSLTLFTHSADTTELILISITPASSAQYMKLESNGHLKVYEWTSRGWREVDDLLTGFRGECNYPTVCGRYGICTMGQCSCPTSSSSRTYFRPIDVRRPSLGCSEVTKLTCQNTKKHSPLEVEDVDYFAFKAGISDTDLNTCKRACLEKCSCKAAFFRSGLNSSRTRGDCYLPTEIFSIMNNEKDRTRYDSVAFIKVQV
glycan array binding signal (z-score) [1]: -0.456 | glycan array binding signal (z-score) [2]: -0.368 | glycan array binding signal (z-score) [3]: -0.357 | glycan array binding signal (z-score) [4]: -0.561 | glycan array binding signal (z-score) [5]: -0.549 | glycan array binding signal (z-score) [6]: -0.479 | glycan array binding signal (z-score) [7]: -0.34 | glycan array binding signal (z-score) [8]: -0.133 | glycan array binding signal (z-score) [9]: -0.386 | glycan array binding signal (z-score) [10]: 0.086 | glycan array binding signal (z-score) [11]: -0.479 | glycan array binding signal (z-score) [12]: 0.719 | glycan array binding signal (z-score) [13]: 0.199 | glycan array binding signal (z-score) [14]: -0.379 | glycan array binding signal (z-score) [15]: 0.418 | glycan array binding signal (z-score) [16]: -0.209 | glycan array binding signal (z-score) [17]: -0.478 | glycan array binding signal (z-score) [18]: 0.031 | glycan array binding signal (z-score) [19]: -0.545 | glycan array binding signal (z-score) [20]: -0.254 | glycan array binding signal (z-score) [21]: 0.09 | glycan array binding signal (z-score) [22]: -0.457 | glycan array binding signal (z-score) [23]: -0.537 | glycan array binding signal (z-score) [24]: -0.579 | glycan array binding signal (z-score) [25]: -0.439 | glycan array binding signal (z-score) [26]: -0.382 | glycan array binding signal (z-score) [27]: -0.384 | glycan array binding signal (z-score) [28]: -0.454 | glycan array binding signal (z-score) [29]: -0.463 | glycan array binding signal (z-score) [30]: -0.552 | glycan array binding signal (z-score) [31]: -0.469 | glycan array binding signal (z-score) [32]: -0.446 | glycan array binding signal (z-score) [33]: -0.464 | glycan array binding signal (z-score) [34]: -0.158 | glycan array binding signal (z-score) [35]: -0.482 | glycan array binding signal (z-score) [36]: 1.99 | glycan array binding signal (z-score) [37]: -0.132 | glycan array binding signal (z-score) [38]: 3.63
